Experimental findings from publication PMC4336329 (PLoS ONE, 2015) are described below.

The whole screen tested about 310,000 compounds, of which about 14,000 (4.5%) showed an effect of 50% or more. The effect is printed as a negative number. The list shows a part of the results.
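Also: peak tail current of the secondary pulse compared with the same well before compound.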

Sequence of human ether-à-go-go-related gene (hERG) potassium channel (Q12809 whole entry, looked up): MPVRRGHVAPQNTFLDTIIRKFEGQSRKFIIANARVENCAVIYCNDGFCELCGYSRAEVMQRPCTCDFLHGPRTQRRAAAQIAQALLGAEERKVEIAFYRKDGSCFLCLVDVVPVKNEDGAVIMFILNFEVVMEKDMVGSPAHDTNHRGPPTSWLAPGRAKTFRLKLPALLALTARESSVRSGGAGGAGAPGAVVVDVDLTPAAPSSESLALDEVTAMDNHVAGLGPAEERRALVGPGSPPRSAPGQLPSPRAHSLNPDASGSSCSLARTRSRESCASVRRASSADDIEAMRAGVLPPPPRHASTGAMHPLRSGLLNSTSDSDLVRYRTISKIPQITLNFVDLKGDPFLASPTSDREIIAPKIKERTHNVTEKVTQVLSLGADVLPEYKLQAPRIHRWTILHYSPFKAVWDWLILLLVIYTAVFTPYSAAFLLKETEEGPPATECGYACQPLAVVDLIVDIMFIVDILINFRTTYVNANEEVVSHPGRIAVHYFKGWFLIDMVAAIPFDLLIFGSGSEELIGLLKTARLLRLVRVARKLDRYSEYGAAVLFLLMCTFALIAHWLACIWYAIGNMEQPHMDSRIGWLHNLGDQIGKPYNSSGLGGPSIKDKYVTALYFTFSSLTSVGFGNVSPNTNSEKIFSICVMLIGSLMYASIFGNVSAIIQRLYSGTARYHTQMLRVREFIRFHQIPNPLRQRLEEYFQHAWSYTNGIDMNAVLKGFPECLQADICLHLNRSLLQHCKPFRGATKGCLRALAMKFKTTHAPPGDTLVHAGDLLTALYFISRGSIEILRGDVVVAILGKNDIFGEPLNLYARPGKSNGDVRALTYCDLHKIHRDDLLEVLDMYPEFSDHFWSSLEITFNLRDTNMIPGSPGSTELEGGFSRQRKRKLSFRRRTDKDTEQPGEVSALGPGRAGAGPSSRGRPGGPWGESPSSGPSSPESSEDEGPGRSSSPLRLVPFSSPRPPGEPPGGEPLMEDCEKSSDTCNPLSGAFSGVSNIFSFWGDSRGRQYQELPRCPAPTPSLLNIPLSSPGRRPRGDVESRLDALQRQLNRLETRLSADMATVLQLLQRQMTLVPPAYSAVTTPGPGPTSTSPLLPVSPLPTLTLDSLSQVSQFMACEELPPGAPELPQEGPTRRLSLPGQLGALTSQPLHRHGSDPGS

This test concerns the target human ether-à-go-go-related gene (hERG) potassium channel (human, UniProt Q12809). Description: primary screen, population patch clamp on CHO cells stably expressing hERG.
For the compound `CCc1ccc(CNC(=O)CCc2nc(-c3cccs3)no2)cc1`, the “hERG current change (%, negative = inhibition) at 10uM” value is on record as -19.8%.
With `CCc1ccc(-c2nn(Cc3ccccc3)cc2C=O)cc1` the figure was -6.26%.
Take `COc1ccc(-n2c(N)cc(=O)nc2SCC(=O)N2CCN(c3ccccc3)CC2)cc1`: the “hERG current change (%, negative = inhibition) at 10uM” value amounted to 9.51%.
With `CCOC(=O)c1sc(Nc2nc(C)cc(C)n2)nc1C` the figure was 10.9%; with `COc1ccccc1N1CCN(C(=O)NCc2ccc(Cl)cc2)CC1`, -6.42%; with `COc1ccc(N2C(=O)CSC23C(=O)N(CC(=O)NC2CCCC2)c2ccccc23)cc1` (stereo not shown), 7.19%.
As for `CCc1ccc(NC(=O)Cn2cnc([N+](=O)[O-])c2)cc1`, the “hERG current change (%, negative = inhibition) at 10uM” value was -3.95%.
Turning to `O=C(Nc1ccccc1C(=O)O)c1ccccc1`, the “hERG current change (%, negative = inhibition) at 10uM” value is given as 8.69%.
The figure for `Oc1ccc(-c2cn3cc(C(F)(F)F)ccc3n2)cc1` is -5.82%; for `O=C(CSc1ncn(-c2ccccc2)n1)N1CCc2ccccc21` it is -0.255%.
With `COc1ccc(C(=O)Nn2c(C)nnc2-n2nc(C)cc2C)cc1OC` the figure was 5.2%; with `COc1ccc(NS(=O)(=O)c2ccc(NC(=O)C(C)(C(F)(F)F)C(F)(F)F)cc2)nn1`, 7%; with `Cn1c(CSc2ncccn2)nnc1SCC(=O)N1CCCCC1`, 10.4%.
Take `CC1CCN(CC(=O)Nc2cccc(Cl)c2)CC1`: the “hERG current change (%, negative = inhibition) at 10uM” value is listed as -18%.
The figure for `COc1ccc(/C=C2\CCc3ccccc3C2=O)c(OC)c1OC` is -16.1%; for `CCCN(C(=O)C(=O)Nc1ccc2nc3n(c(=O)c2c1)CCCCC3)c1ccc(OCC)cc1` it is -24.4%.
On to `O=C(CNC(=O)c1ccc(OC(F)F)cc1)Nc1cccc(S(=O)(=O)N2CCCC2)c1`, for which the “hERG current change (%, negative = inhibition) at 10uM” value is -70.3%.
On to `O=C(COC(=O)c1cnccn1)N=c1sccn1Cc1ccccc1Cl`, for which the “hERG current change (%, negative = inhibition) at 10uM” value is listed as 2.2%.
The figure for `CC(Sc1nnnn1-c1ccccc1)C(=O)Nc1ccc(N2CCN(C)CC2)cc1` (stereo not shown) is -20.4%; for `CCCN1CCN(C(=O)C2CCN(c3nnc(C)c4c(C)n(-c5ccc(C)cc5)nc34)CC2)CC1` it is -32.3%.
With `O=c1c2cc(NC(=S)NC3CCCC3)ccc2nc2n1CCCCC2` the figure was -59.6%.
The figure for `Cc1cc(NC(=O)CCC(=O)N(Cc2ccc(F)cc2)C(C(=O)NC2CCCC2)c2ccco2)no1` (stereo not shown) is 0.819%.
As to `C/C(N)=C(/C#N)C(=O)COc1ncnc2ccccc12`, the “hERG current change (%, negative = inhibition) at 10uM” value is -1.47%.
As for `O=C(CCN1CCC(c2ccc(Cl)s2)=N1)c1ccc(Cl)s1`, the “hERG current change (%, negative = inhibition) at 10uM” value came to 13.1%.
The figure for `COCCSc1nc(N)c(NC(=O)c2ccco2)c(=O)[nH]1` is 14.7%; for `O=C(Cn1cnc2c(nnn2Cc2ccc(F)cc2)c1=O)NCc1ccco1` it is -18.2%; for `CCCCCC(O)(CCN1CCCCC1)c1ccccc1.Cl` (stereo not shown) it is -82.4%.
With `Cc1nc2ccc(Oc3ccccc3)cc2s1` the figure was 5.91%; with `CCn1c(SCC(=O)Nc2cc(C)ccc2C)nnc1-c1cnccn1`, -40.5%.
As to `CN(C(=O)c1ccccc1C(=O)OCC(=O)c1ccc(F)cc1)c1ccccc1`, the “hERG current change (%, negative = inhibition) at 10uM” value is -24.2%.
The figure for `COC(=O)c1ccccc1NC(=O)CN(Cc1ccc(Cl)cc1)S(C)(=O)=O` is -36.2%; for `Cc1ccc2c(c1)N(CCC(=O)NCc1cccnc1)C(=O)CO2` it is -0.463%; for `Cc1nc(SCC(N)=O)[nH]c(=O)c1Cc1ccc(OC(C)C)cc1` it is 3.98%.
With `Cc1ccc(-c2nc3c(c(=O)[nH]c(=O)n3CC(C)C)n2CC(C)C)cc1[N+](=O)[O-]`, the “hERG current change (%, negative = inhibition) at 10uM” value is on record as -7.7%.
Consider `CCOc1ccccc1NC(=O)c1cccc(NC(=O)C2CCCC2)c1`, for which the “hERG current change (%, negative = inhibition) at 10uM” value is reported as -1.34%.
With `C[C@]12CCC3C(CC=C4C[C@@H](O)CC[C@@]43C)C1CCC2[C@]1(C)CCC(=O)O1` (stereo partly shown) the figure was 3.21%.
The figure for `CC(=O)Nc1ccc(SCC(=O)N2CCN(S(=O)(=O)c3ccccc3)CC2)cc1` is -19%.
For `CSc1sc(C(=O)N(C)C)c2c1S(=O)(=O)N(C)c1ccccc1-2`, the “hERG current change (%, negative = inhibition) at 10uM” value was -2.27%.
The figure for `O=C1CCc2cc(S(=O)(=O)N3CCC(C(=O)NC4CCCc5ccccc54)CC3)ccc2N1` (stereo not shown) is 10.8%; for `Cc1c(NC(=O)c2cccs2)cccc1[N+](=O)[O-]` it is 17.3%.
The figure for `Cc1ccc(C)c(NC(=O)CN(C)S(=O)(=O)c2ccccc2)c1` is -11.2%.
The figure for `CCCCN(Cc1ccccc1)S(=O)(=O)c1ccc2c(c1)n(C)c(=O)c(=O)n2C` is 2.68%; for `O=C(NCCc1c[nH]c2ccccc12)c1ccco1` it is 3.71%.
